The results in this text go back to paper PMC4336329 (PLoS ONE, 2015).

Out of some 310,000 compounds screened, about 14,000 (4.5%) showed an effect of 50% or more. The effect is printed as a negative number. The list shows a part of the results.
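Further: peak tail current of the secondary pulse compared with the same well before compound.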

The experiment deals with human ether-à-go-go-related gene (hERG) potassium channel (human, UniProt Q12809). The experiment is described as follows: primary screen, population patch clamp on CHO cells stably expressing hERG.
human ether-à-go-go-related gene (hERG) potassium channel, sequence (Q12809 whole entry, looked up): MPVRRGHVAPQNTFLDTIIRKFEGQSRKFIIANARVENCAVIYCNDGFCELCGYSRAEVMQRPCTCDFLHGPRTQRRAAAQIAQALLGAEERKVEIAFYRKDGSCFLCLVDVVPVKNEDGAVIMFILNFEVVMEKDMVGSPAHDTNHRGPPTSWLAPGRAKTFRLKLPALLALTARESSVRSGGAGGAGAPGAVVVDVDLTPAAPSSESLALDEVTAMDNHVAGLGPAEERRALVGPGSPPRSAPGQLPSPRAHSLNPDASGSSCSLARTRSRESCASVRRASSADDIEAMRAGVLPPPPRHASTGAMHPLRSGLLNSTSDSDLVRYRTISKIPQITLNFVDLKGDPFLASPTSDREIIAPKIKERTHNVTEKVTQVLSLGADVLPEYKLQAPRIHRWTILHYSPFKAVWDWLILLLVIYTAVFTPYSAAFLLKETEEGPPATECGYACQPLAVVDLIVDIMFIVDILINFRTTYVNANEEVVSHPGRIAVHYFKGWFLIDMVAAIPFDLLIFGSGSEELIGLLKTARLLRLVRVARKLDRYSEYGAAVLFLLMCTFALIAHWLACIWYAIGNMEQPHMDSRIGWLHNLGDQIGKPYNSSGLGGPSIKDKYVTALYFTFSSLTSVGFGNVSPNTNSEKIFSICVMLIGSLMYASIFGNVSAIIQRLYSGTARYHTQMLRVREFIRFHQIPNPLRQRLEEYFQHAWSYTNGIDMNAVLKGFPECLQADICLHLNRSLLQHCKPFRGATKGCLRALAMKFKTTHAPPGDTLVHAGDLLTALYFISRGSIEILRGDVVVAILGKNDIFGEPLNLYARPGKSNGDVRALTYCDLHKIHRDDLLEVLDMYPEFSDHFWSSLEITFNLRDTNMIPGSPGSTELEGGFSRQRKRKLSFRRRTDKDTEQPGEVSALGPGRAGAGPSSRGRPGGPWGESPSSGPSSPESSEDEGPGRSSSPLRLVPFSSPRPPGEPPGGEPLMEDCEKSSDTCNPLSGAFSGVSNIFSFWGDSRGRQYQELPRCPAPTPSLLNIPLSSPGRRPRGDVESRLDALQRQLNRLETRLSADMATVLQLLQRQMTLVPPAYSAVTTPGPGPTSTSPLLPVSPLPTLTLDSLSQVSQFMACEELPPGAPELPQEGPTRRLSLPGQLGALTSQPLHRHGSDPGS
In the case of `O=C(OCn1nnc2ccccc2c1=O)c1ccc(S(=O)(=O)N2CCOCC2)cc1`, the “hERG current change (%, negative = inhibition) at 10uM” value is given as 8.81%.
In the case of `CCCNC(=O)c1ccc(COc2ccc(C(C)(C)C)cc2)o1` it was -1.91%.
As for `COc1cccc2sc(Nc3nc(C)c(C(C)=O)s3)nc12`, the figure is -4.11%; as for `CCOc1ccc(NC(=O)c2ccco2)cc1S(=O)(=O)N1CCCC1`, -23%; as for `C/C(=N\NC(=O)c1cccc(S(=O)(=O)N2CCCCC2)c1)c1ccc(C)o1`, -7.17%.
For `COc1ccc(C(=O)CCC(=O)NCCc2c[nH]c3ccccc23)cc1OC`, the “hERG current change (%, negative = inhibition) at 10uM” value is recorded as 21.2%.
As for `COc1ccc(N2CCN(C(=O)c3ccc(C)c(NC(=O)C4=C(C)OCCS4)c3)CC2)cc1`, the figure is -21.4%; as for `COc1ccccc1C(=O)N(Cc1ccc(Cl)cc1)C1CCS(=O)(=O)C1` (stereo not drawn), -38%; as for `CS(=O)(=O)c1ccc2nc(NC(=O)C3CC3)sc2c1`, 10.4%.
In the case of `Cc1cc(C)c(OCCCCn2cnc3ccccc3c2=O)c(C)c1` it was 8.39%.
In the case of `CC(C)(C)n1nc2c(c1NC(=O)c1ccco1)CS(=O)C2` (stereo not drawn) it was 19.6%; in that of `COc1ccc(S(=O)(=O)N(C)CC(=O)N2CCCC2)cc1`, 16.5%.
For `Cc1cc(C)cc(N(CC(=O)NCCSCc2ccccc2)S(C)(=O)=O)c1`, the “hERG current change (%, negative = inhibition) at 10uM” value is recorded as -6.49%.
Consider `COc1ccc(C(=O)NCc2cc(C(C)C)no2)cc1OC1CCN(C(C)C)CC1`, for which the “hERG current change (%, negative = inhibition) at 10uM” value is on record as -42.7%.
As for `CCCCn1c(-c2ccsc2)nc2c1c(=O)[nH]c(=O)n2CCC`, the figure is -16.1%; as for `CCOC(=O)N1CCN(C(=S)Nc2cccc(C)c2C)CC1`, 16.8%.
Take `C/C(=N\NC(=O)c1nnn(-c2nonc2N)c1CSc1ccccc1)c1ccc2c(c1)OCO2`: the “hERG current change (%, negative = inhibition) at 10uM” value came to 17.5%.
In the case of `Cc1ccccc1CSc1nnc(C)c(=O)[nH]1` it was 8.22%.
For the compound `CCOC(=O)C(CCSC)NC(=O)CN.Cl` (stereo not drawn), the “hERG current change (%, negative = inhibition) at 10uM” value is listed as -6.89%.
In the case of `CC(=O)Nc1cc2nc(C)n(Cc3ccccc3[N+](=O)[O-])c2nc1C` it was 17.4%; in that of `OC(CN1CCN(c2ccccc2)CC1)Cn1c2ccccc2c2ccccc21` (stereo not drawn), 9.1%; in that of `CC1=NN(C(=O)COc2ccccc2)C(O)(c2ccccc2)C1` (stereo not drawn), -8.49%.
With `COc1ccc(C2C(C(=O)c3ccc(C)o3)=C(O)C(=O)N2c2cc(C)on2)cc1OC` (stereo not drawn), the “hERG current change (%, negative = inhibition) at 10uM” value was 6.89%.
In the case of `O=C(C1CC(=O)N(c2ccc3c(c2)OCCO3)C1)N1CCN(c2ccccc2)CC1` (stereo not drawn) it was -8.44%; in that of `O=C1CC(c2ccc(F)cc2)C2=C(CCCC2=O)N1` (stereo not drawn), 6.3%; in that of `C/C(=N\NC(=O)c1cccc(F)c1)c1cccc(NC(=O)c2ccc(F)cc2)c1`, 13%.
As for `CCS(=O)(=O)N1CCN(S(=O)(=O)c2ccccc2[N+](=O)[O-])CC1`, the figure is 2.28%; as for `COc1ccccc1N1C(=O)[C@@H]2[C@H](C1=O)[C@H](C(=O)c1ccc(OC(C)=O)cc1)N1N=CC=C[C@@H]21`, 4.33%.
In the case of `O=C(NCCS(=O)(=O)NCc1ccc2c(c1)OCO2)c1ccccc1` it was -20.2%.
Take `CCOC(=O)N1CCN(C(=O)CC(C(=O)N2CCc3ccccc32)n2ccnc2)CC1` (stereo not drawn): the “hERG current change (%, negative = inhibition) at 10uM” value is on record as -30.2%.
Turning to `CC1CC1c1ccc(/C=C(\C#N)C(=O)Nc2cccc(Cl)c2Cl)o1` (stereo not drawn), the “hERG current change (%, negative = inhibition) at 10uM” value was -3.19%.
As for `O=C1CN(C(=O)c2ccc(F)cc2)c2ccccc2N1`, the figure is -4.95%; as for `C/C(=N/NC(=O)CNC(=O)c1ccncc1)c1ccc(Cl)cc1`, -9.07%; as for `CCC(=O)Nc1ccc(C(=O)Nc2ccc(Br)cc2F)cc1`, 24.9%.
On to `COc1ccc(C(=O)NC(=S)NCc2ccco2)cc1Br`, for which the “hERG current change (%, negative = inhibition) at 10uM” value came out at 13.4%.
In the case of `Cc1ccc(S(=O)(=O)N2CCOCC2)cc1NC(=O)CN(C)C1CCS(=O)(=O)C1` (stereo not drawn) it was 16.9%.
Regarding `CCN1CCc2c(sc(NC(=O)c3ccc(S(=O)(=O)N4CCOCC4)cc3)c2C(N)=O)C1`, the “hERG current change (%, negative = inhibition) at 10uM” value is reported as -21.9%.
Turning to `NNc1nc2c(F)cc(F)cc2s1`, the “hERG current change (%, negative = inhibition) at 10uM” value is on record as 12.9%.
As for `COc1cc(C(=O)NCC(=O)OCC(=O)c2cccc3ccccc23)cc(OC)c1OC`, the figure is 5.88%.
In the case of `CCOC(=O)C[C@H]1c2cc(F)ccc2S(=O)(=O)N1c1ccccc1` it was 13.9%.
For the compound `CCCc1[nH]nc2c1C(Cc1ccccc1)C(C#N)=C(N)O2` (stereo not drawn), the “hERG current change (%, negative = inhibition) at 10uM” value is recorded as 0.432%.
Take `CCOC(=O)C(CC)Sc1nc(N)c(NC(=O)c2ccc(OC)c(OC)c2)c(=O)[nH]1` (stereo not drawn): the “hERG current change (%, negative = inhibition) at 10uM” value is -1.07%.
With `COc1ccc(C(C)(C)C)cc1NC(=O)COC(=O)C(C)C`, the “hERG current change (%, negative = inhibition) at 10uM” value is 7.26%.
Take `Cc1csc(NC(=O)CSc2nnc(-c3cccnc3)o2)n1`: the “hERG current change (%, negative = inhibition) at 10uM” value turned out to be 9.7%.
As for `COc1ccc(N2CCN(C(=O)NC3CC(=O)N(c4ccc(OC)cc4)C3)CC2)cc1` (stereo not drawn), the figure is -35.9%; as for `NS(=O)(=O)c1ccc(NC(=O)COC(=O)c2cn(-c3ccccc3)nc2-c2ccccc2)cc1`, 1.42%; as for `CC1CCCN(S(=O)(=O)c2cc(Cl)ccc2Cl)C1` (stereo not drawn), -15.8%.
In the case of `Cn1c(C(O)c2ccc(Br)cc2)nc(Cl)c1Cl` (stereo not drawn) it was -8.65%.
For `CN(CC(=O)NC(=O)NCc1ccco1)Cc1nc2ccccc2c(=O)[nH]1`, the “hERG current change (%, negative = inhibition) at 10uM” value is -3.41%.
As for `COc1cccc(C2C3=C(N=c4s/c(=C\c5ccccc5O)c(=O)n42)c2ccccc2CC3)c1OC` (stereo not drawn), the figure is 14%.
As for `O=C(NC(=S)Nc1nc(-c2ccccc2)cs1)c1ccco1`, the figure is 0.912%; as for `CN(c1ccc(C(=O)NC2CCCC2)cc1)S(=O)(=O)c1ccccc1`, -8.29%; as for `COc1cccc(/C=N/NC(N)=S)c1OCc1cccc(Cl)c1`, 11.5%.
Turning to `O=C(NNC(=O)c1ccccc1[N+](=O)[O-])c1ccccc1[N+](=O)[O-]`, the “hERG current change (%, negative = inhibition) at 10uM” value came to 36%.
On to `CN1CCN(CC#Cc2ccccc2)CC1CCO` (stereo not drawn), for which the “hERG current change (%, negative = inhibition) at 10uM” value is 14.4%.
In the case of `Cc1cccc(C(=O)NC(=S)NNC(=O)Cc2ccccc2)c1` it was 3.66%.
As for `O=C(NCCc1ccccn1)c1cc(C(=O)C2CCCCC2)c[nH]1`, the figure is -14.1%; as for `CCCCn1c(=O)[nH]c(=O)c2c1nc(-c1cc(Cl)c(OC)c(OC)c1)n2C`, 16.2%.
In the case of `COc1cc(C(=O)Nc2sc3c(c2C(=O)O)CCC3)cc(OC)c1OC` it was 13.2%; in that of `N#Cc1ccc(Cl)cc1NC(=O)COC(=O)c1cccc(S(=O)(=O)N2CCOCC2)c1`, -42.1%; in that of `COc1cc(NC(=O)c2ccc(CNc3c(N4CCOCC4)c(=O)c3=O)cc2)cc(OC)c1`, -1.92%.
In the case of `O=C(CSc1nc(O)c(Cc2ccccc2F)c(=O)[nH]1)N1CCCCCC1`, the “hERG current change (%, negative = inhibition) at 10uM” value was found to be 18.2%.
For the compound `CCc1nc2oc3ccccc3c(=O)c2c(=O)n1Cc1ccccc1`, the “hERG current change (%, negative = inhibition) at 10uM” value worked out at 18%.
As to `CCCCC(=O)NCCNc1nc2c(c(=O)n(C)c(=O)n2C)n1Cc1ccccc1`, the “hERG current change (%, negative = inhibition) at 10uM” value was determined as 19.2%.
On to `O=C(OCC(=O)N1CCc2ccccc21)c1ccc[n+]([O-])c1`, for which the “hERG current change (%, negative = inhibition) at 10uM” value was found to be 6.99%.
In the case of `Cc1ccc(C2C(C(N)=S)=C(N)OC3=C2C(=O)CC(C)(C)C3)cc1` (stereo not drawn) it was 1.11%; in that of `Cc1cc(-c2nnc(CCC(=O)NCc3cccc(C(F)(F)F)c3)o2)no1`, 5.69%.
With `CCN(CC)CCN1C(=O)C(=O)/C(=C(/O)c2cnn(-c3ccccc3)c2C)C1c1ccc(C)o1` (stereo not drawn), the “hERG current change (%, negative = inhibition) at 10uM” value is on record as -6.63%.
As for `COc1ccc(C(=O)Nc2c(Cl)cc(Cl)cc2C(=O)N2CCC(C)CC2)cc1`, the figure is -17.2%; as for `CC(C)Nc1oc(-c2cccc3ccccc23)nc1C#N`, 2.18%.
With `CC(C)(O)C#Cc1ccc(C(=O)NC2CCCCC2)s1`, the “hERG current change (%, negative = inhibition) at 10uM” value was 14.3%.
With `CCN(CC)S(=O)(=O)c1ccc(OC)c(NC(=S)Nc2ccc(C)c(C)c2)c1`, the “hERG current change (%, negative = inhibition) at 10uM” value was 3.23%.
In the case of `COC(=O)c1cc2ccsc2n1CC(=O)Nc1ccc(N(C)C)cc1` it was 2.28%; in that of `COc1ccc(NC(=O)OC(CN2CCCCC2)C(F)(F)F)cc1` (stereo not drawn), 2.28%.
As for `CC(C(=O)N1CCc2ccccc21)N1CCN(c2cccc(C(F)(F)F)c2)CC1` (stereo not drawn), the “hERG current change (%, negative = inhibition) at 10uM” value was -17.8%.
As for `c1ccc(-c2cn(CC3CCCCC3)nn2)cc1`, the figure is -1.74%; as for `C=CCSc1nnc2c(n1)OC(c1ccccn1)N(C(C)=O)c1ccccc1-2` (stereo not drawn), -17.2%.
As to `Cc1ccc(NC(=O)CC2S/C(=N/c3nccs3)N(C)C2=O)c(C)c1` (stereo not drawn), the “hERG current change (%, negative = inhibition) at 10uM” value is reported as -15.3%.
On to `COc1cc(C(=S)N2CCOCC2)cc(OC)c1OC(=O)c1cc([N+](=O)[O-])cc([N+](=O)[O-])c1`, for which the “hERG current change (%, negative = inhibition) at 10uM” value is reported as -6.98%.
As to `CC(NC(=O)c1cccnc1)C(=O)[O-].[Na+]` (stereo not drawn), the “hERG current change (%, negative = inhibition) at 10uM” value turned out to be 19.2%.
Turning to `NS(=O)(=O)c1cc(C(=O)OCC(=O)NNC(=O)c2ccccc2)ccc1Cl`, the “hERG current change (%, negative = inhibition) at 10uM” value is recorded as 9.4%.
`O=C(NCc1nc2ccccc2[nH]1)c1cc2ccccc2oc1=O`: the “hERG current change (%, negative = inhibition) at 10uM” value was 1.39%.
As for `CC(=O)c1ccc(-n2nnnc2SCC(=O)NNC(=O)c2ccco2)cc1`, the figure is 1.72%; as for `COc1ccc(C2(c3ccc(OC)cc3)NC(=O)N(CC(=O)Nc3ccccc3C)C2=O)cc1`, -18.8%; as for `CCc1ccc(C(=O)OCC(=O)N2CCCCCC2)cc1`, -2.11%.
Regarding `CC1Oc2ccccc2N(Cc2ccc(F)cc2)C1=O` (stereo not drawn), the “hERG current change (%, negative = inhibition) at 10uM” value is -20.8%.
In the case of `COc1ccc(/C=C/C(=O)C2CC2)cc1COc1c(C)cccc1C` it was -10.5%.
